Measurements published in PubChem BioAssay AID1030 (National Center for Advancing Translational Sciences (NCATS), 2008).
Several values for one entry are separate records, joined by “and”; a condition that tells them apart may be missing. Identical values can stand only once. About 16,000 (7.3%) of roughly 220,000 compounds were called active. Inconclusive results, whose numbers are uncertain, are shown with a selection of clear calls. Calls follow the shape of the dose curve; as a rule, active = well fitted inhibition curve with a large enough effect (not every such curve was filed as active); inconclusive = small, poorly fitted or top-dose-only effect, or another doubt; inactive = no such curve, though single readings can be large or run the other way. A potency beside an inconclusive call is a rough fit, not a confirmed value.

Each molecule was assayed against Aldehyde dehydrogenase 1A1 (Homo sapiens) (UniProt P00352) (assay: qHTS Assay for Inhibitors of Aldehyde Dehydrogenase 1 (ALDH1A1)). Conditions: Purified ALDH1A1, NADH fluorescence, propionaldehyde substrate; series mostly up to 75.3 µM.
Chain of UniProt P00352 (P00352 whole entry, looked up): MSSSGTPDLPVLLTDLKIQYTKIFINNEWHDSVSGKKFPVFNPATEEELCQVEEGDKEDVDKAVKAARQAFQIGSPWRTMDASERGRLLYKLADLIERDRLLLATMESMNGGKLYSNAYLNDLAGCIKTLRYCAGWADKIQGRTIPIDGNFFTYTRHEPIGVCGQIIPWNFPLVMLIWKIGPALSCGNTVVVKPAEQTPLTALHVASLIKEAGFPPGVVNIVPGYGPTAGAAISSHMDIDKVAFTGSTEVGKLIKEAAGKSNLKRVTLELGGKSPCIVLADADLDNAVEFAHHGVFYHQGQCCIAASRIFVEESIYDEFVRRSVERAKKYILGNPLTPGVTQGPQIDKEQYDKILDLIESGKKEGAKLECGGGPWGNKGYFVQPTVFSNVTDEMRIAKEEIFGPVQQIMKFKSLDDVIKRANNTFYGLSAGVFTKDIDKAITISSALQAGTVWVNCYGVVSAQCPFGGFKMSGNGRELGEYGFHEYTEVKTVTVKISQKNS
Potency is read from the fitted curve at half-maximal effect; tags tell the direction and shape of the fitted curve.

Potency, active:
Fc1ccc(NC(=S)N2N=CCC2c2ccccc2)cc1 (stereo not drawn) 7.08 µM
CCOC(=O)C1CCN(C(=O)CS(=O)Cc2nc(-c3ccc(C)cc3)oc2C)CC1 (stereo not drawn) 25.1 µM
CCc1ccc(NC(=S)NC2CCN(Cc3ccccc3)CC2)cc1 20 µM
O=C(CSc1ncnc2ccccc12)c1cccs1 11.2 µM
C/C(=N\NC(=S)NC1CCCCC1)c1ccc(C)o1 12.6 µM
COc1ccc(NS(=O)(=O)c2ccc(N3CCCC3)c(NC(=S)Nc3ccc(SC(F)F)cc3)c2)cc1 3.55 µM
Fc1ccc(-c2c[nH]c(=S)n2Cc2ccccc2)cc1 0.355 µM
Cc1ccc(NC2=C(NCCO)C(=O)c3ccccc3C2=O)cc1 22.4 µM
Cc1ccc(C(=O)N/N=C/c2cn(Cc3ccccc3)c3ccccc23)cn1 12.6 µM
NC(=O)c1cc(Cc2ccccc2)sc1NC(=O)c1ccco1 17.8 µM
CCn1c(C)nc2cc(C(=O)NNC(=S)Nc3ccc(Cl)cc3Cl)ccc21 3.55 µM
O=C(c1ccccc1)c1ccc2nc(N3CCCCC3)c3nncn3c2c1 12.6 µM
CC(C)c1nc(=S)c2ccccc2[nH]1 14.1 µM
COC(=O)C1=C(C)N(CCc2ccc(OC)c(OC)c2)C(=O)/C1=C\c1ccc(O)cc1 25.1 µM
O=C(O)Cc1sc(Nc2ccc(Cl)cc2)nc1-c1cccs1 1 µM
C#CCN1C(=O)S/C(=C/c2cc(C)n(CC)c2C)C1=O 7.51 µM
Cc1ccccc1Cn1c(CN2CCc3ccccc3C2)nc2c1c(=O)n(C)c(=O)n2C 31.6 µM
COc1cccc(/C=C(/C#N)c2ccc(F)cc2)c1OCc1cccc(C(=O)O)c1 12.6 µM

Potency, inconclusive:
O=C(COc1ccc(C(=O)c2ccccc2)cc1)NC1CCCCC1 28.2 µM [inhibitor, single point]
Cc1cc(/C=N/NC(=O)c2ccncc2)c(C)n1-c1ccccc1 37.7 µM [inhibitor, single point]
CCOC(=O)c1cnc2c(Cl)c(Cl)ccc2c1N1CCN(C)CC1 39.8 µM [inhibitor, single point]
CN=C1c2cc3c(Br)c(OC)ccc3n2CCN1C 39.8 µM [inhibitor, single point]
CSCCC(NS(=O)(=O)c1cccs1)C(=O)NCc1ccccc1 (stereo not drawn) 39.8 µM [inhibitor, single point]
CCOc1ccc(C(C)NC(=O)Nc2ccccc2C(=O)OC)cc1 (stereo not drawn) 39.8 µM [inhibitor, single point]
CC(C)c1onc(C(=O)NCc2ccc(Cl)cc2)c1[N+](=O)[O-] 44.7 µM [inhibitor, single point]
Cc1cc(C)c(C#N)c(SCSCc2ccccc2)n1 25.1 µM [inhibitor, single point]
Cc1c(OCC(=O)OC(C)C)ccc2c3c(c(=O)oc12)CCC3 14.1 µM [inhibitor, partial curve]
O=C(NNc1ccccc1[N+](=O)[O-])Nc1ccccc1 0.562 µM [inhibitor, full curve]
COC(=O)c1cc(NC(=S)N2CCN(C(=O)C3CCCO3)CC2)cc(C(=O)OC)c1 (stereo not drawn) 7.94 µM [inhibitor, partial curve]
COC(=O)[C@H](NC(=O)c1cc(-c2ccccc2)nc2ccccc12)c1ccccc1 31.6 µM [inhibitor, partial curve] and 25.1 µM [inhibitor, partial curve]
Cn1cc(Cl)c(C(=O)NC(=S)Nc2sc3c(c2C#N)CCCCC3)n1 0.501 µM [inhibitor, full curve, poor fit]
CCN(c1cccc(C)c1)S(=O)(=O)c1ccc2[nH]c(=O)c(=O)[nH]c2c1 39.8 µM [inhibitor, single point]
CC(CCc1ccccc1)NC(=O)C(Cc1ccccc1)NS(=O)(=O)c1cccs1 (stereo not drawn) 22.4 µM [inhibitor, single point]
CN(CC(=O)Nc1ccc2c(c1)OCCO2)S(=O)(=O)c1ccc(Br)s1 20 µM [inhibitor, partial curve]
CCOc1ccc2c(c1)-c1c(ssc1=S)C(C)(C)N2 39.8 µM [inhibitor, single point]
O=C(COC(=O)c1ccc2c(=O)n3c(nc2c1)CCC3)Nc1ccc(OC(F)F)cc1 39.8 µM [inhibitor, single point]
CCNC(=O)c1c(O)c2cccc3c2n(c1=O)CC3 39.8 µM [inhibitor, single point]
O=C1C=C[C@@H](O)[C@H]2[C@@H]3C(=O)N(C4CCCCC4)C(=O)[C@@H]3CC[C@H]12 3.55 µM [inhibitor, single point]
Cc1ccc(S(=O)(=O)N(C)Cc2ccc(C(=O)N/N=C/c3ccc(OC(F)F)cc3)cc2)cc1 35.5 µM [inhibitor, single point]
Cc1ccc(CNC(=O)C2CC(=O)N(C3CCCCCCC3)C2)cc1 (stereo not drawn) 22.4 µM [inhibitor, partial curve]
O=C1C2C(C(=O)N1/N=C/c1ccc([N+](=O)[O-])o1)C1C=CC2C12CC2 (stereo not drawn) 39.8 µM [inhibitor, single point]
O=C(COC(=O)CCc1c[nH]c(=O)[nH]1)Nc1cccc(Cl)c1 39.8 µM [inhibitor, single point]
COCCNC(=O)CSCc1nc(-c2ccc(SC)cc2)oc1C 39.8 µM [inhibitor, single point]
CCN(CCO)c1ncnc2c1sc1nc(C(C)C)c3c(c12)CC(C)(C)OC3 7.08 µM [inhibitor, partial curve]
CS(=O)(=O)NN1C(=O)c2ccccc2NC1c1c[nH]c2ccccc12 (stereo not drawn) 39.8 µM [inhibitor, single point]
O=C(Nc1nc2cc3c(cc2s1)OCCO3)c1ccncc1 17.8 µM [inhibitor, single point]
COc1ccccc1-c1cc2nc(C)c(CCC(=O)NCc3ccco3)c(C)n2n1 39.8 µM [inhibitor, single point]
CCC(=O)Nn1cnc2c(c1=O)C1(CCCCC1)Cc1ccccc1-2 35.5 µM [inhibitor, single point]
Cc1ccccc1NC(=O)c1snc2c(=O)[nH]cnc12 39.8 µM [inhibitor, single point]
COc1ccc(-c2nc(/C=C3\C(C)=Nc4ccccc43)c(O)o2)cc1 39.8 µM [inhibitor, single point]
COc1ccc(CSc2cccc3cccnc23)cc1[N+](=O)[O-] 22.4 µM [inhibitor, partial curve]
CCOc1ccc(C(=O)COC(C)=O)cc1 39.8 µM [inhibitor, single point]
CCOc1cc(/C=N/NC(=O)c2cccc([N+](=O)[O-])c2)ccc1OS(=O)(=O)c1ccccc1 12.6 µM [inhibitor, partial curve]
COc1ccc(-n2c(SCC(=O)NCC3CCCO3)nc3n[nH]c(C)c3c2=N)cc1 (stereo not drawn) 28.2 µM [inhibitor, partial curve]
O=C1c2ccccc2CN1CCSC(=S)N1CCOCC1 17.8 µM [inhibitor, single point]
Cc1ccc2nc(-c3ccccc3Cl)cc(C(=O)Nc3cc(C)on3)c2c1 39.8 µM [inhibitor, single point]
COc1ccc(CC(=O)OCc2cc(=O)n3cc(Br)ccc3n2)cc1OC 25.1 µM [inhibitor, single point]
Cn1c(=O)c2c(nc(Sc3n[nH]c(N)n3)n2Cc2ccccc2Cl)n(C)c1=O 39.8 µM [inhibitor, single point]
Cc1ccc(NC(=O)c2cc(N(C)C)ccc2[P+](=O)O)cc1 39.8 µM [inhibitor, single point]
CCc1cc2c(=O)c(Oc3ccccc3F)c(C)oc2c(CN(C)C)c1O 28.2 µM [inhibitor, partial curve]

Potency, inactive:
Cc1sc2ncnc(OCC(=O)N3CCN(S(=O)(=O)c4ccccc4)CC3)c2c1C
COc1ccc(-c2cc(C(F)(F)F)n3nc(C(=O)O)cc3n2)cc1OC
Cc1ccc(-n2c(NN)nc3ccccc3c2=O)c(C)c1
O=[N+]([O-])c1ccc2cn(-c3ccccc3)nc2c1
CC(=O)NC(Cc1c[nH]c2ccccc12)C(=O)O (stereo not drawn)
COc1ccc(C(=O)NN/C(C)=C/C(=O)C(F)(F)C(F)(F)C(F)(F)F)cc1
CSC(=S)N/N=C(\C)c1ccccc1
CC(C)CC(=O)Nc1nnc(SCC(=O)NCc2ccc3c(c2)OCO3)s1
COc1ccc(-c2csc(N(CC3CCCO3)C(=O)c3ccco3)n2)cc1 (stereo not drawn)
CC(C)Oc1ccc(/C=N/NC(N)=S)cc1
CN1CCN(C(=O)c2ccc(COc3ccc(Cl)cc3Cl)cc2)CC1
N[C@@H](C(=O)O)c1ccc(C(=O)O)cc1
CCC(C(=O)NC1CCCCC1)n1c(SCc2ccccc2F)nc2ccncc21 (stereo not drawn)
